# In PubChem BioAssay AID2451 (National Center for Advancing Translational Sciences (NCATS), 2010):
# In all, about 290,000 compounds went through this assay and about 2,100 (0.72%) were called active. Inconclusive means that the source gave no clear call. Such entries were picked first, then a sample of the others. Calls come from the whole dose curve; as a rule, active = well fitted inhibition curve with a large enough effect; inconclusive = small, poorly fitted or top-dose-only effect, or effect the other way; inactive = flat fitted curve, though single readings scatter. A potency beside an inconclusive call is a rough fit, not a confirmed value.
# Target: Fructose-bisphosphate aldolase (Giardia intestinalis (strain ATCC 50803 / WB clone C6)) (UniProt A8B2U2)
# UniProt A8B2U2, sequence (A8B2U2 whole entry, looked up): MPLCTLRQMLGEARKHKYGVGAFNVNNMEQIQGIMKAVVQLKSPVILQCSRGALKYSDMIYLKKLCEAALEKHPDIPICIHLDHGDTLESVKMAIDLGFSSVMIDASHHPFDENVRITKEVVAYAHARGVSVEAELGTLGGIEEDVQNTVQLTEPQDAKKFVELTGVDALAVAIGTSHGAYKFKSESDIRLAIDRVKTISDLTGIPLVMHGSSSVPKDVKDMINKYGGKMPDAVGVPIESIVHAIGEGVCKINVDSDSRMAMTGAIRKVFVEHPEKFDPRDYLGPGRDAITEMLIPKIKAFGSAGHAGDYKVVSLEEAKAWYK
# Test: qHTS Assay for Inhibitors of Fructose-1,6-bisphosphate Aldolase from Giardia Lamblia; note: nearly all actives have a fitted effect of over 55% in size
# Conditions: purified Giardia FBPA; activity, negative = inhibition: at 59.6 µM (top of the series) unless noted
# How it was run: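 Giardia FBPA (40 nM reagent) was preincubated 10 min at RT with compound (up to 57.5 uM final), then substrate plus GAPDH/TPI/NAD/arsenate coupling system with diaphorase/resazurin was added; resorufin fluorescence (525/598 nm) was read after 20 min.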
# % is set by controls: 0 for no effect and ±100 for the full control effect; potency is the fitted concentration of half-maximal effect; tags give direction and shape of the fitted curve.
Structure (SMILES),Potency,"activity, negative = inhibition"
COc1ccccc1CNCc1ccc(C)cc1,"inconclusive: 25.1 µM [inhibitor, partial curve]",
COc1ccc(C)cc1Nc1n[n+](-c2ccccc2)c(-c2ccc(NC(C)=O)cc2)s1,active: 22.4 µM,
COc1ccccc1NC(=O)N1CCN(CCc2ccccc2)CC1,,inactive: 1.9%
Cc1c(OCC(=O)NCC(O)c2ccccc2)ccc2c3c(c(=O)oc12)CCCC3 (configuration not stated),,inactive: -4.42%
COc1cccc(CN2CCNC(=O)C2CC(=O)NCCn2ccc3ccccc32)c1OC (configuration not stated),"inconclusive: 9.98 µM [inhibitor, partial curve]",
Cc1c(C(=O)N2CCCC2)sc(NC(=O)c2ccco2)c1C#N,"inconclusive: 17.7 µM [inhibitor, single point]",
COc1cc(C(=O)NCc2cc3ccccc3n2C)cc(OC)c1OC,,inactive: -7.81%
COc1ccc(O)c(-c2c(-c3ccc(Cl)cc3)n[nH]c2C)c1,"inconclusive: 5.62 µM [activator, single point]",
O=C(NNC(=S)NC(=O)c1cccnc1)c1ccc(F)cc1,"inconclusive: 3.15 µM [inhibitor, full curve]",
COc1ccc(OC)c(NC(=O)C2CCN(C(=O)c3cccs3)CC2)c1,,inactive: 0.178%
OC(CN1CCOCC1)c1ccc(F)cc1 (configuration not stated),"inconclusive: 19.9 µM [inhibitor, partial curve]",
Nc1cc2ccncc2c2ccccc12,"inconclusive: 6.29 µM [inhibitor, partial curve]",
CC(=O)C1(C)OC(N)=C(C#N)C(c2ccccc2)C1(C#N)C#N (configuration not stated),"inconclusive: 19.9 µM [inhibitor, partial curve]",
C/C(=N\Nc1cc(N2CCOCC2)nc(C)n1)c1ccc(F)cc1,"inconclusive: 35.5 µM [inhibitor, single point]",
COc1ccc2[nH]cc(CCNc3ncncc3-c3cccc(NS(C)(=O)=O)c3)c2c1,,inactive: 0.0482%
CN(C)N1C(N)=C(C#N)C(c2cccnc2)C2=C1CCCC2=O (configuration not stated),"inconclusive: 11.2 µM [inhibitor, partial curve]",
CCOC(=O)c1nnn(-c2nonc2-n2cccc2)c1C,,inactive: 2.43%
O=C(O)[C@@H]1CSC(c2cccnc2)N1 (some centres not stated),"inconclusive: 14.1 µM [inhibitor, partial curve]",
CCC(CC)C(=O)NCCc1cc2ccc(C)cc2[nH]c1=O,,inactive: 1.02%
Cc1cc(C)c(S(=O)(=O)c2ccccc2)c(OC(=O)c2c(F)cccc2Cl)n1,"inconclusive: 17.7 µM [inhibitor, single point]",
Cc1cc(=O)[nH]c(SCc2nc3ccccc3c(=O)n2-c2ccccc2C)n1,"inconclusive: 15.8 µM [inhibitor, single point]",
CCN(CC)S(=O)(=O)c1cccc(N=Nc2sc(N)nc2C)c1,,inactive: 12.1%
Cc1c(C(=O)N2CCN(c3ccccn3)CC2)oc2ccccc12,,inactive: 16.6%
Cc1cnc(CNc2ncncc2-c2ccccc2CN(C)C)cn1,,inactive: -2.23%
Cn1cc(P(=O)(N2CCOCC2)N2CCOCC2)cc1P(=S)(N1CCOCC1)N1CCOCC1,"inconclusive: 25.1 µM [inhibitor, single point]",
Cc1c(NC(=O)c2cc(=O)[nH]c(=O)[nH]2)c(=O)n(-c2ccccc2)n1C,"inconclusive: 17.7 µM [inhibitor, partial curve]",

Structure (SMILES),Potency,"activity, negative = inhibition"
ClCC1NCC(c2ccccc2Cl)c2c1[nH]c1ccccc21 (configuration not stated),"inconclusive: 22.3 µM [inhibitor, single point]",
O=C(Nc1scc(-c2ccccc2)c1C(=O)O)c1ccco1,,inactive: -3.44%
O=C(Nc1ccc(N2CCCCC2)c(Cl)c1)c1ccc2c(c1)OCCO2,"inconclusive: 19.9 µM [inhibitor, single point]",
CCCCCCCCOc1ccc(C2OC34CCCCC3C(C#N)(C#N)C2(C#N)C(=N)O4)cc1 (configuration not stated),"inconclusive: 15.8 µM [inhibitor, single point]",
CCC1=C(OC(=O)N(CC)CC)N2C(=O)OC(=NCC(=O)OC)[C@]2(Cc2ccccc2)[C@H]2C1=CC[C@H]1C(=O)N(c3ccccc3)C(=O)[C@H]12,inactive,
COc1cccc(-c2cc(C(=O)Nc3nc4ccccc4s3)c3ccccc3n2)c1,,inactive: 1.5%
CN(C)CCN(C(=O)c1ccc2ccccc2c1)c1nc2ccc(F)cc2s1,"inconclusive: 22.4 µM [inhibitor, partial curve]",
CCOC(=O)c1ccc(-c2c(C)cc3oc(=O)cc(-c4ccccc4)c3c2C)cc1,,inactive: 9.14%
COc1ccccc1OCC#CCNC1CCCCC1C (configuration not stated),active: 1.58 µM,
O=C(/C=C(\O)c1ccccc1)C(=O)NNC(=O)c1ccccc1[N+](=O)[O-],"inconclusive: 25.1 µM [inhibitor, single point]",
COc1ccc(CC(=O)n2[nH]c(=O)ccc2=O)cc1OC,"inconclusive: 17.7 µM [inhibitor, partial curve]",
O=[N+]([O-])c1ccc2nc(SCc3ccccc3Cl)sc2c1,,inactive: 0.991%
CC(C)(C)OC(=O)NCCCC[C@H](NC(=O)c1[nH]cnc1C(=O)Nc1ccccc1)C(=O)OC(C)(C)C,"inconclusive: 39.7 µM [inhibitor, partial curve]",
CCOc1cc(/C=C2\SC(=N)N(c3nonc3N)C2=O)ccc1OCCN1CCOCC1,"inconclusive: 35.4 µM [inhibitor, single point]",
Cc1ccc(OCCNCc2ccccc2)c(C)c1,"inconclusive: 35.5 µM [inhibitor, partial curve]",
COc1ccc(-c2nnn(CC(=O)c3ccc4c(c3)OCCO4)n2)cc1OC,,inactive: 1.78%
COC(=O)[C@@H]1CC[C@H](C)[C@@H](c2ccc(C)cc2)N1C(=O)c1ccc(/C=N\OCC[C@@H]2C=C[C@H](OC(C)=O)[C@H](COC(C)=O)O2)cc1,,inactive: 1.27% [at 12.9 µM]
O=c1c(-c2ccc(F)cc2)nc2cnc(N3CCNCC3)nc2n1-c1ccccc1,,inactive: 15%
CC(C)Sc1oc(-c2ccco2)nc1S(=O)(=O)c1ccc(F)cc1,"inconclusive: 19.9 µM [inhibitor, single point]",
CCCOc1cccc(NC(=O)OC2CCN(C)CC2)c1,,inactive: 4.11%
CCOc1ccccc1N1CCN(CC(=O)Nc2ncc(C)s2)CC1,"inconclusive: 12.6 µM [inhibitor, partial curve]",
O=Cc1ccc(Oc2cc(-c3ccccc3)nc(-c3ccccc3)n2)cc1,,inactive: 1.18%
COc1ncc2ncc(=O)n(C3CC3)c2n1,,inactive: -1.03%
Clc1ccc(-c2ccc(CN3CCCCC3)o2)cc1,"inconclusive: 12.6 µM [inhibitor, partial curve]",
COc1ccc2c(c1)C=CC1(O2)N(CCO)c2ccccc2C1(C)C (configuration not stated),"inconclusive: 14.1 µM [inhibitor, partial curve]",
Cc1ccc(C(=O)C(c2ccccc2)N2Cc3ccccc3C2=N)cc1 (configuration not stated),"inconclusive: 15.8 µM [inhibitor, single point]",

Structure (SMILES),Potency,"activity, negative = inhibition"
Cc1ccc(/C=C/C(=O)Nc2cccc3ncccc23)o1,"inconclusive: 28.2 µM [inhibitor, single point]",
CC1(S(=O)(=O)O)CC(=O)c2ccccc2C1=O (configuration not stated),"inconclusive: 8.91 µM [inhibitor, full curve]",
COc1cc(Cl)c(C)cc1NC(=S)NN,active: 19.9 µM,
O=S(=O)(Cc1cc(Oc2ccccc2)nc(-c2ccccc2)n1)c1ccccc1,,inactive: 12.7%
CC(=O)NNC(=O)c1sc(=S)n2c1[nH]c(=O)c1sccc12,active: 17.7 µM,
Nc1ncc(O)c(N)n1,"inconclusive: 19.9 µM [inhibitor, partial curve]",
COc1cc(/C(C)=N\NC(N)=S)cc(OC)c1OC,"inconclusive: 50 µM [inhibitor, partial curve]",
Cc1ccc(CN2CCC(N3CC(C)OC(C)C3)CC2)cc1 (configuration not stated),active: 15.8 µM,
O=C(Nc1nc2c(Cl)c(Cl)ccc2s1)C1CC1,,inactive: -5%
COc1ccc(S(=O)(=O)n2ccnc2C)c(C)c1C,"inconclusive: 25.1 µM [inhibitor, single point]",
O=C(OC(C(=O)NCc1cccs1)c1ccccc1Cl)c1ccco1 (configuration not stated),,inactive: -5.14%
CC1CC(C)CN(CC(=O)NC(c2ccccc2)c2ccccc2)C1 (configuration not stated),"inconclusive: 19.9 µM [inhibitor, partial curve]",
Cc1ccc(S(=O)(=O)N2CCN(CC3CC4C=CC3C4)CC2)cc1 (configuration not stated),"inconclusive: 14.1 µM [inhibitor, single point]",
O=P(O)(O)C(O)C(F)(F)C(F)(F)C(F)(F)C(F)F (configuration not stated),"inconclusive: 17.7 µM [activator, partial curve]",
O=c1[nH]c(=O)n(-c2cccc(F)c2)c(O)c1/C=C1\C=Nc2ccccc21,,inactive: 4.32%
Cc1nc(SCC(=O)c2ccccc2)n[nH]1,active: 12.6 µM,
c1ccc(-c2n[nH]c(-c3ccccn3)n2)nc1,active: 3.15 µM,
O=C(O)CN1C(=O)/C(=C/c2ccc(SCc3ccccc3)o2)SC1=S,active: 19.9 µM,
CN1CC[C@]2(C)c3cc(O)ccc3N(C)[C@@H]12,active: 1 µM,
Cc1onc(-c2ccccc2)c1C(=O)NC(=S)NNC(=O)c1cccnc1,"inconclusive: 44.6 µM [activator, single point]",
NNC(=O)c1cc(-c2ccco2)[nH]n1,,inactive: -4.91%
COc1ccc(S(=O)(=O)N2CCN(C3CCCCCCC3)CC2)cc1,"inconclusive: 22.3 µM [inhibitor, partial curve]",
S=c1[nH]nc(-c2ccncc2)n1CC1CCCO1 (configuration not stated),"inconclusive: 22.3 µM [inhibitor, partial curve]",
Nc1nnc(CSCc2ccc(Cl)cc2)s1,,inactive: -4.94%
CCOc1ccc(C(=O)Nc2ccc3c(c2)OCCO3)cc1,,inactive: 4.11%
